# According to PubChem BioAssay AID1508642 (National Center for Advancing Translational Sciences (NCATS), 2021):
# Out of some 43,000 compounds screened, about 200 (0.47%) were called active. About 12% were inconclusive and are not listed. Calls come from the whole dose curve; as a rule, active = well fitted cell-killing curve with a large enough effect; inconclusive = small, poorly fitted or top-dose-only effect, or effect the other way; inactive = flat fitted curve, though single readings scatter. This is one part of the list.
# Experiment: Cell viability qHTS assay in S16 Pmp22-F2sN cells; note: nearly all actives have a fitted effect of over 65% in size
# Conditions: S16 Pmp22-F2sN Schwann cells viability, CellTiter-Glo, 24 h; series mostly up to 57.5 µM; activity change, negative = cytotoxicity: at the top concentration
# Method in brief: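 Viability was measured by CellTiter-Glo luminescence (15 min, room temperature). This followed 24 h at 37 °C of compound exposure (23 nL pin transfer) in S16 Pmp22-F2sN Schwann cells, 500-1,000 per well.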
# % is set by controls: 0 for no effect and ±100 for the full control effect.
row,Compound,"activity change, negative = cytotoxicity"
1,Cc1ccc(C(=O)NCCn2c(C)cc3ccccc32)cc1C,inactive: 14.5%
2,Cc1cc(C)cc(-n2nnc(-c3nc(-c4ccc5c(c4)OCO5)no3)c2C)c1,inactive: 1.85%
3,COc1cccc(C(=O)NCCSc2c(-c3ccc(F)cc3)[nH]c3ccccc23)c1OC,inactive: -23.8%
4,Cc1ccc(CNC(=O)C2CCCN(S(=O)(=O)c3ccc4c(c3)oc(=O)n4C)C2)cc1 (configuration not stated),inactive: 2.94%
5,CC(Oc1ccc(F)cc1)C(=O)NCC1(N(C)C)CCCCC1 (configuration not stated),inactive: -2.3%
6,Cc1ccc(S(=O)(=O)c2cn(CC(=O)Nc3ccc(C)c(Cl)c3)c3ccc(C)cc3c2=O)cc1,inactive: 6.15%
7,Cc1c(NC(=O)c2ccc(OC(C)C)cc2)cccc1-c1nc2ncccc2o1,inactive: 2%
8,CC(C)Cn1c(=O)c2ccccc2n2c(CCC(=O)Nc3cccc(Cl)c3)nnc12,inactive: 0.542%
9,CCOC(=O)c1cnc2cc(-c3ccc(Cl)cc3)nn2c1-c1ccccc1,inactive: 8.65%
10,CC(=O)c1cc(-c2ccccc2)n(CC(=O)NC2CCCCC2)c1C,inactive: 3.08%
11,O=C(Cc1ccc(F)cc1)NC1CC(=O)N(c2ccccc2)C1 (configuration not stated),inactive: 0.99%
12,CCOc1ccc(Cn2nnc3c(=O)[nH]c(C4CCN(C(=O)c5ccccc5)CC4)nc32)cc1,inactive: -19.6%
13,O=C1Nc2c(c(=O)[nH]c(=O)n2-c2ccccc2)C1(NS(=O)(=O)c1ccc(Cl)cc1)C(F)(F)F (configuration not stated),inactive: 3.98%
14,CCCOc1ccc(-c2nn(-c3ccccc3)cc2C2NC(=O)NC(C)=C2C(=O)OC(C)C)cc1 (configuration not stated),inactive: -6.88%
15,CC1CCCCN1CCCNC(=O)Cn1ncc2c([nH]c3ccccc32)c1=O (configuration not stated),inactive: 8.48%
16,Cc1cccc(CNS(=O)(=O)c2ccc3[nH]c(=O)ccc3c2)c1,inactive: 18.2%
17,CCC(CC)c1nn2c(=O)cc(COc3ccc(NC(=O)c4ccccc4Cl)cc3)nc2s1,inactive: 19%
18,NC(=O)c1cc(S(=O)(=O)N2CCN(c3ccc(F)cc3)CC2)cs1,inactive: -4.01%
19,Cc1ccccc1CNC(=O)C1CCN(c2nn3cc(-c4ccc(F)cc4)nc3s2)CC1,inactive: 2.42%
20,COc1ccc(Cn2c(=O)[nH]c3cc(C(=O)N4CCN(c5cc(C)ccc5C)CC4)ccc3c2=O)cc1,inactive: -13.6%
21,COc1ccc(C)cc1NC(=O)c1cc(S(=O)(=O)NC2CCCCCC2)ccc1F,inactive: -15.7%

row,Compound,"activity change, negative = cytotoxicity"
1,O=C(Nc1ccc(Br)cc1)C1CCN(c2cnccn2)CC1,inactive: -16.1%
2,COc1cc(OC)c(Nc2cc(C)nc3ncnn23)cc1Cl,inactive: -7.73%
3,CCc1nn2c(=O)cc(COC(=O)CNC(=O)c3ccccc3)nc2s1,inactive: -19.1%
4,O=C(COc1ccccc1F)OCc1cc(=O)n2nc(-c3cccs3)sc2n1,inactive: -36.9%
5,CCC(C(=O)N1CCN(c2ccccc2)CC1)n1nc(C)n2c(cc3sccc32)c1=O (configuration not stated),inactive: -19.8%
6,CCOc1ccc(C(=O)Nc2cccc(NC(=O)c3ccco3)c2)cc1Cl,inactive: -20%
7,COc1ccccc1CNC(=O)c1ccc(N2CCCC2)c(NC(=O)NCc2ccccc2)c1,inactive: 6.99%
8,CCN(CC)S(=O)(=O)c1nnc(NC(=O)COc2ccccc2Cl)s1,inactive: 3.62%
9,COc1ccc(OC)c(NC(=O)CSc2ccnc(=O)[nH]2)c1,inactive: -2.94%
10,COc1ccccc1-c1cc(C(=O)Nc2sc3c(c2C#N)CCCC3)no1,inactive: 3.77%
11,Cn1c(=O)oc2cc(S(=O)(=O)CCC(=O)N3CCN(c4ccccc4)CC3)ccc21,inactive: -4.03%
12,CCOc1ccc(CCNC(=O)CN2C(=O)C(CC)Oc3ccccc32)cc1OCC (configuration not stated),inactive: 8.44%
13,COc1ccc(C2CC(c3c(O)n(C4CCCCC4)c(=O)[nH]c3=O)=Nc3ccccc3S2)cc1 (configuration not stated),inactive: -0.846%
14,Cc1ccc2c(c1)NC(=O)C(CC(=O)Nc1cc(Cl)ccc1C)O2 (configuration not stated),inactive: 3.83%
15,CCOC(=O)C1CCCN(c2nc3c(S(=O)(=O)c4ccc(C)c(C)c4)nnn3c3ccc(Cl)cc23)C1 (configuration not stated),inactive: -2.59%
16,CCn1c(=O)c2sccc2n2c(CCC(=O)Nc3cc(C)cc(C)c3)nnc12,inactive: -7.46%
17,COc1cccc(C(=O)Nc2cc3c(cc2C(=O)c2ccc(C)cc2)OCCO3)c1,inactive: -1.73%
18,COc1ccc(-c2nc(CS(=O)CC(=O)NCc3ccccc3OC)c(C)o2)cc1 (configuration not stated),inactive: -18.3%
19,COc1ccc2c(c1)CC(C(=O)NCCCN1CCN(c3ccc(F)cc3)CC1)CO2 (configuration not stated),inactive: -0.136%
20,COc1cccc(N2CCN(C(=O)C3CCN(S(=O)(=O)c4ccc5c(c4)oc(=O)n5C)CC3)CC2)c1,inactive: 10.1%
21,Cn1c(=O)oc2cc(S(=O)(=O)Nc3ccc(C(=O)O)cc3)ccc21,inactive: -3.55%

row,Compound,"activity change, negative = cytotoxicity"
1,Cc1cc(C)c2c(CC(=O)N(Cc3ccccc3)C3CCS(=O)(=O)C3)coc2c1 (configuration not stated),inactive: -3.22%
2,Cc1cc(C)cc(OCC(=O)Nc2ccc(-c3nc4ccccc4o3)cc2)c1,inactive: 15.9%
3,COc1ccccc1CNC(=O)c1ccc(-c2nc(CN3CCc4ccccc43)c(C)o2)cc1,inactive: -6.29%
4,COc1ccc(NC(=O)c2cccn2-c2nnc(N3CCCCC3)s2)cc1,inactive: -13.4%
5,CCCSCCCNC(=O)c1ccc2nc(Cc3ccccc3)oc2c1,inactive: -22.3%
6,CCc1ccc(CNC(=O)CN2CCSc3ccccc32)cc1,inactive: -19.2%
7,Cc1ccc(NC(=O)C(=O)NCC2(c3ccccc3)CCCC2)cc1Cl,inactive: 8.11%
8,O=C(NCCc1ccccc1)c1cnn(-c2ccc(F)cc2)c1-n1cccc1,inactive: -3.79%
9,CCOC(=O)N1CCc2c(sc3c2c(=O)n(CCc2ccccc2)c(=O)n3Cc2c(F)cccc2Cl)C1,inactive: 16%
10,Cc1ccc(NC(=O)CSc2nc3n[nH]c(C)c3c(=N)n2-c2cccc(C)c2)cc1,inactive: -15.9%
11,O=C(CN1C(=O)COc2ccc(S(=O)(=O)N3CCCCCC3)cc21)NCc1ccc(F)cc1,inactive: 3.94%
12,Cc1cc(C)cc(Oc2nc3c(c(=O)n(C)c(=O)n3C)n2Cc2ccc(F)cc2)c1,inactive: -2.98%
13,CCOC(=O)c1ccccc1NC(=O)N(C)CCc1c(C)nn(CC)c1C,inactive: -4.81%
14,COc1ccc(F)cc1S(=O)(=O)NCCc1sc2nc(-c3ccc(F)cc3)nn2c1C,inactive: -22.8%
15,CCc1nnc(SCC(=O)Nc2ccc(F)cc2F)c2cc3sc(C)cc3n12,inactive: -2.74%
16,COc1ccc(N2CCN(c3oc(/C=C/c4cc(OC)c(OC)c(OC)c4)nc3C#N)CC2)cc1,inactive: 11.9%
17,COc1cc(C(=O)Nc2ccc3oc(-c4ccc(C)c(Br)c4)nc3c2)cc(OC)c1OC,inactive: -0.34%
18,COc1ccc(Nc2cc(C(=O)NCc3ccccc3OC)c3ccccc3n2)cc1,inactive: -3.16%
19,Cc1cc(OCC(=O)N(Cc2sccc2C)C2CCS(=O)(=O)C2)ccc1Cl (configuration not stated),inactive: -7.88%
20,COc1ccc(CNC(=O)CN2C(=O)c3cccnc3Oc3ccc(C)cc32)cc1,inactive: 2.52%
